Assay [1] deals with T1, Flag-tagged mouse GALNTL5, full length (mouse) (UniProt Q9D4M9).
T1 sequence (chain, N-glycans at the N-glycosylation sites N68, N140, N353 and N390): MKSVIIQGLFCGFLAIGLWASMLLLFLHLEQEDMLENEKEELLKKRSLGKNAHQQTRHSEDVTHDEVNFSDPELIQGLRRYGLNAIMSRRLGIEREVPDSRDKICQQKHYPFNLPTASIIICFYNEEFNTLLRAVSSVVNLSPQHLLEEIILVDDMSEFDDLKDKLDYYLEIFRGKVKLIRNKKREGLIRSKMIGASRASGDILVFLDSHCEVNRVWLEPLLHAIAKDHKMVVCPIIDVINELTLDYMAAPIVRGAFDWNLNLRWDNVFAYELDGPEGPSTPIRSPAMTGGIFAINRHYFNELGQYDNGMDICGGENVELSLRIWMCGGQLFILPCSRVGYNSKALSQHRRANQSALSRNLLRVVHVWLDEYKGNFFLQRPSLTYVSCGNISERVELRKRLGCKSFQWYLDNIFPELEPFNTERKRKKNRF
Put plainly: co-IP; GC-2spd(ts) cells transiently transfected with Flag-tagged mouse GALNTL5 cDNAs, cultured overnight; IP of lysates with the DDDDK-tagged Protein Magnetic purification Kit (anti-Flag), western blot for the chaperones. A general note: A western blot detects proteins with antibodies after separation by electrophoresis.

Sequences of proteins named here, by UniProt entry; tags and fusion partners are left off. Residues count along the entry.
UniProt P20029, residues 20-655: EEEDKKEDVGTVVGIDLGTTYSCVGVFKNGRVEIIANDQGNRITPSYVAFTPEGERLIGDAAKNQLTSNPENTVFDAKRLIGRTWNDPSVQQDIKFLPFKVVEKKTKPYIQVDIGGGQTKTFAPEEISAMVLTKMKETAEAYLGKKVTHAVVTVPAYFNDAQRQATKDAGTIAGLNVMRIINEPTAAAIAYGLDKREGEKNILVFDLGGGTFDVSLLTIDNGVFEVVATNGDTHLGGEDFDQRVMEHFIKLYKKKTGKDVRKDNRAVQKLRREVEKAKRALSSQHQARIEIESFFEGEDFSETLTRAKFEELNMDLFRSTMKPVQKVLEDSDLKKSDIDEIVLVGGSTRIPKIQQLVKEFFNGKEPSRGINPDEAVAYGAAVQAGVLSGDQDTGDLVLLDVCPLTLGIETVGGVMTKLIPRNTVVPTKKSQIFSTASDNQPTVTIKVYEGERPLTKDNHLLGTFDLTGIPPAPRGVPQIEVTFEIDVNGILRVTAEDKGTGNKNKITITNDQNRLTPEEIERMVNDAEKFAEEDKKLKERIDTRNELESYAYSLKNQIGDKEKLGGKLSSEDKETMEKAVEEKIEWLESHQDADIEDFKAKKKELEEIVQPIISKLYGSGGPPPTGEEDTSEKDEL
UniProt P11021, residues 19-654: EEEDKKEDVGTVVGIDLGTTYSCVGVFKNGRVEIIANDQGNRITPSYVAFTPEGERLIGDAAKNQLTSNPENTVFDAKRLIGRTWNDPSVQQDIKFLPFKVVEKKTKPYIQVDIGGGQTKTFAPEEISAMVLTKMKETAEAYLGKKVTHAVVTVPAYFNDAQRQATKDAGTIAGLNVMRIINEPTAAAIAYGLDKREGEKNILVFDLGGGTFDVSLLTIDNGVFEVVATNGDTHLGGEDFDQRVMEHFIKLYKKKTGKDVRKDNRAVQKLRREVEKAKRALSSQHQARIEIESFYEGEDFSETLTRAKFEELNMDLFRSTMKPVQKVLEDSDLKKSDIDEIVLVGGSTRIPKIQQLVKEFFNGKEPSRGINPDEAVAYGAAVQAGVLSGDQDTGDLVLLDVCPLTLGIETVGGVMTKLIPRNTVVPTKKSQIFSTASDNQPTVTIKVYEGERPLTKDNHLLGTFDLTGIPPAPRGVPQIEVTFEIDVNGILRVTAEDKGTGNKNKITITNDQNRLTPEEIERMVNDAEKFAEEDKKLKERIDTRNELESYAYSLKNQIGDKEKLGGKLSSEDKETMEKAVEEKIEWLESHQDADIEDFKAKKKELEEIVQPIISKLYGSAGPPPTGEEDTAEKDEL

In assay [2] the target is T2, Flag-tagged mouse GALNTL5 quadruple mutant (N68K, N140K, N353K, N390K) (mouse) (UniProt Q9D4M9).
T2 sequence: T1 sequence (chain, N-glycans at the N-glycosylation sites N68, N140, N353 and N390) with N68K, N140K, N353K, N390K
The assay is described as above.

Assay [3] has as its target T3, mouse GALNTL5 protein tagged with green fluorescent protein (GFP) (mouse) (UniProt Q9D4M9).
T3 sequence: T1 sequence (chain, N-glycans at the N-glycosylation sites N68, N140, N353 and N390)
The assay is described as follows: co-IP; lysates of GALNTL5-GFP/GC-2spd(ts) cells with cumate; IP with anti-GFP antibody, western blot with anti-BiP and anti-calnexin antibodies.

For assay [4], the target named is T4, Flag-tagged human GALNTL5 (human) (UniProt Q7Z4T8).
T4 sequence (chain, N-glycan structures (sites not printed)): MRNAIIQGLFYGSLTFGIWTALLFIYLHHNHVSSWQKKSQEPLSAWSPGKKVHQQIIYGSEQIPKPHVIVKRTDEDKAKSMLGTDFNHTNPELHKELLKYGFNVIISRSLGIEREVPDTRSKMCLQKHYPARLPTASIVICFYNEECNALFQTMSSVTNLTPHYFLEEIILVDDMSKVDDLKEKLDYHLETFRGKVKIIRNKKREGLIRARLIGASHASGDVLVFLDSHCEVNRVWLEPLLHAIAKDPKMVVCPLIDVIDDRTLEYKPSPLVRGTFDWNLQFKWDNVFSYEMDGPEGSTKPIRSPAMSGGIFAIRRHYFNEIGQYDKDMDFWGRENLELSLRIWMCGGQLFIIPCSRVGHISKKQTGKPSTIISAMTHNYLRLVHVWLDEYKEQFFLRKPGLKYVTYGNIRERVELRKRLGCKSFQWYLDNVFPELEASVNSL
The assay is described as follows: co-IP; HEK293T cells transfected with Flag-tagged human GALNTL5 cDNAs, cultured overnight; IP of lysates with the DDDDK-tagged Protein Magnetic purification Kit (anti-Flag), western blot.

Assay [5] addresses T1, Flag-tagged mouse GALNTL5, full length (mouse). The assay is described as follows: co-IP; GC-2spd(ts) cells transiently transfected with Flag-tagged mouse GALNTL5 cDNAs, cultured overnight; IP of lysates with the DDDDK-tagged Protein Magnetic purification Kit (anti-Flag), western blot for the chaperones. The source holds these as a separate data set.
The target in assay [6] is T2, Flag-tagged mouse GALNTL5 quadruple mutant (N68K, N140K, N353K, N390K) (mouse). The description is as above. This is another data set of the same source.

Positions count from the first letter of the chain named. Like-named read-outs stand apart in the source and are kept apart here. Results are given in words; binding and its absence hold for the method and conditions named. In cells and extracts the contact can be indirect. Some results given as binding are weak or reduced against the parent protein; the word gives no strength. Sequences can lack the tags named with a protein.

In the case of “BiP (GRP78) (mouse, endogenous) (from UniProt P20029 20-655)”, the binding result in assay [1], in assay [2] and in assay [3] was “binds” each time.

For the molecule “BiP (human, endogenous) (from UniProt P11021 19-654)”, in assay [4], the binding entry is reported as “binds”.

B1: calnexin (human, endogenous) (protein, UniProt P27824 21-592)
chain: HDGHDDDVIDIEDDLDDVIEEVEDSKPDTTAPPSSPKVTYKAPVPTGEVYFADSFDRGTLSGWILSKAKKDDTDDEIAKYDGKWEVEEMKESKLPGDKGLVLMSRAKHHAISAKLNKPFLFDTKPLIVQYEVNFQNGIECGGAYVKLLSKTPELNLDQFHDKTPYTIMFGPDKCGEDYKLHFIFRHKNPKTGIYEEKHAKRPDADLKTYFTDKKTHLYTLILNPDNSFEILVDQSVVNSGNLLNDMTPPVNPSREIEDPEDRKPEDWDERPKIPDPEAVKPDDWDEDAPAKIPDEEATKPEGWLDDEPEYVPDPDAEKPEDWDEDMDGEWEAPQIANPRCESAPGCGVWQRPVIDNPNYKGKWKPPMIDNPSYQGIWKPRKIPNPDFFEDLEPFRMTPFSAIGLELWSMTSDIFFDNFIICADRRIVDDWANDGWGLKKAADGAAEPGVVGQMIEAAEERPWLWVVYILTVALPVFLVILFCCSGKKQTSGMEYKKTDAPQPDVKEEEEEKEEEKDKGDEEEEGEEKLEEKQKSDAEEDGGTVSQEEEDRKPKAEEDEILNRSPRNRKPRRE
Turning to B1, in assay [4], the binding entry is reported as “binds”.

B2: calnexin (mouse, endogenous) (protein, UniProt P35564 21-591)
chain: HDGHDDDAIDIEDDLDDVIEEVEDSKSKSDASTPPSPKVTYKAPVPTGEVYFADSFDRGSLSGWILSKAKKDDTDDEIAKYDGKWEVDEMKETKLPGDKGLVLMSRAKHHAISAKLNKPFLFDTKPLIVQYEVNFQNGIECGGAYVKLLSKTAELSLDQFHDKTPYTIMFGPDKCGEDYKLHFIFRHKNPKTGVYEEKHAKRPDADLKTYFTDKKTHLYTLILNPDNSFEILVDQSVVNSGNLLNDMTPPVNPSREIEDPEDRKPEDWDERPKIADPDAVKPDDWDEDAPSKIPDEEATKPEGWLDDEPEYIPDPDAEKPEDWDEDMDGEWEAPQIANPKCESAPGCGVWQRPMIDNPNYKGKWKPPMIDNPNYQGIWKPRKIPNPDFFEDLEPFKMTPFSAIGLELWSMTSDIFFDNFIISGDRRVVDDWANDGWGLKKAADGAAEPGVVLQMLEAAEERPWLWVVYILTVALPVFLVILFCCSGKKQSNAMEYKKTDAPQPDVKDEEGKEEEKNKRDEEEEEEKLEEKQKSDAEEDGVTGSQDEEDSKPKAEEDEILNRSPRNRKPRRE
Consider B2, for which the binding entry was “binds” in assay [5], “no binding” in assay [6] and “binds” in assay [3].

These data come from PMC11655647.
